Reference: ChEMBL document CHEMBL1201862, “PubChem BioAssay data set” (2004)

Test system: NCI-H322M
Assay: growth of human tumour cells (NCI), 48 h

| Structure (SMILES) | GI50 |
| --- | --- |
| CCOP(=O)(OCC)/C(C#N)=C/c1ccc(-c2cc(C(F)(F)F)cc(C(F)(F)F)c2)o1 | inactive: 12.6 µM |
| O=C1CSC(C(/N=N/c2ccc(Cl)cc2)c2nc3ccccc3[nH]2)=N1 (stereo not given) | inactive: > 100 µM |
| O=C(Nc1nnn[nH]1)c1nc(O)cc(-c2ccccc2)n1 | inactive: > 100 µM |
| O=C(O)c1c(CC(Cc2ccc3c(c2)CCC3)C(=O)O)ccc2c1CCC2 (stereo not given) | inactive: > 100 µM |
| O=C(C1OC1c1ccc([N+](=O)[O-])cc1)C12CC3CC(CC(C3)C1)C2 (stereo not given) | inactive: 20.2 µM |
| CNC(=O)NCCN1N=C(C)/C(=C\c2ccccc2)CC1=O | inactive: > 100 µM |
| O=C(CC1(O)C(=O)Nc2c(Cl)ccc(Cl)c21)c1ccc(Cl)cc1 (stereo not given) | inactive: 50.4 µM |
| COC(=O)c1cc(OCc2cc(OCc3ccc(Br)cc3)cc(OCc3ccc(Br)cc3)c2)cc(OCc2cc(OCc3ccc(Br)cc3)cc(OCc3ccc(Br)cc3)c2)c1 | inactive: > 100 µM |
| CCN(CC)CCCC(C)Nc1c2cc(OC)cc(C)c2nc2c(C)c(Cl)ccc12 (stereo not given) | inactive: 1.58 µM |
| CCC(C(=O)C(=O)OC)P1(=O)OC(C)(C)CN1C(C)(C)C (stereo not given) | inactive: > 100 µM |
| Oc1ccc2ccccc2c1/N=N/c1cc(Cl)ccc1Cl | inactive: 30.8 µM |
| CCOC(=O)C1=CN=C2C(=O)N(c3ccccc3)N(C)C2(C)C1=N (stereo not given) | inactive: > 100 µM |
| CCOC(=O)C(Cc1c(-c2[nH]c3ccccc3c2CC(NC(=O)CNC(C)=O)C(=O)OCC)[nH]c2ccccc12)NC(=O)CNC(C)=O (stereo not given) | inactive: 82.6 µM |
| CCOC(=O)CN(CC)C(=O)NC12CC3CC(CC(C3)C1)C2 | inactive: 230 µM |
| CC(=O)NC1C(OCc2ccccc2)OC(CO)C(O)C1OCC(=O)NC(C)C(=O)NC(CCC(=O)OCCNC(=O)c1cccc2cc3ccccc3nc12)C(N)=O (stereo not given) | inactive: 20.7 µM |
| CCCCCCCC/C=C\CCCCCCC/C=C1/C[C@](/C=C/C(=O)OC)(CO)OC1=O | inactive: 16.7 µM |
| Cc1ccc(S(=O)(=O)NCCCN(CCCNS(=O)(=O)c2ccc(C)cc2)S(=O)(=O)c2ccc(C)cc2)cc1 | inactive: > 100 µM |
| O=C1O[C@H](c2ccc3c(c2)OCO3)[C@H]2CO[C@@H](c3ccc4c(c3)OCO4)[C@@H]12 | inactive: > 100 µM |
| O=c1oc2ccccc2cc1-c1cc2ccccn2c1 | inactive: > 100 µM |
| O=C(c1ccc2ccccc2c1)N(Cc1cccnc1)C(=S)N(Cc1cccnc1)C(=O)c1ccc2ccccc2c1 | inactive: 29 µM |
| O=c1cccc(C2CC(CO)C3CCCCN3C2)[nH]1 (stereo not given) | inactive: > 100 µM |
| Nc1nc(F)nc2c1ncn2C1OC(COP(=O)(O)O)C(O)C1O (stereo not given) | inactive: 242 µM |
| COC1CC(OC2CCC3(C)C(=CCC4C3C(OC(C)=O)C(OC(=O)CC(C)C)C3(C)C(C(C)=O)CCC43O)C2)OC(C)C1OC1CC(OC)C(OC2CC(OC)C(OC3OC(C)C(O)C(OC)C3O)C(C)O2)C(C)O1 (stereo not given) | inactive: 53.7 µM |

| Structure (SMILES) | GI50 |
| --- | --- |
| O=C(/C=C/c1ccc(OCCCOc2ccc(/C=C/C(=O)c3ccccc3)cc2)cc1)c1ccccc1 | inactive: > 100 µM |
| CC(C)N1CC2CN(Cc3ccccc3)CC(C1)C2=O | inactive: > 100 µM |
| Nc1ccc(C(=O)N/C(=C\C=C\c2ccco2)c2nc3c(O)nc(S)nc3[nH]2)cc1 | inactive: > 100 µM |
| C[C@@]12C=CC3C/C(=N\C(N)=S)C=C(CCCC4OCCO4)[C@]3(CC1)C2 (stereo not given in full) | inactive: 15.1 µM |
| C[n+]1c2ccccc2n2c3ccccc3c(NCCCn3ccnc3)c(C#N)c21 | inactive: 2.73 µM |
| COC(=O)C(=O)Cc1nc2ccccc2s1 | inactive: > 100 µM |
| CSc1cc(Cl)c(C)cc1S(=O)(=O)NC(=O)NNc1cnc2ccccc2n1 | inactive: > 100 µM |
| CCOC(=O)C(C(=O)Cc1ccccc1)c1ccccc1 (stereo not given) | inactive: > 100 µM |
| [O-][n+]1onc2c3nn(-c4ccccc4)nc3ccc21 | inactive: 16.7 µM |
| CCOC(=O)/C(C#N)=C(N)/C(=N\Nc1cccc(C(F)(F)F)c1)C(=O)OCC | inactive: > 100 µM |
| CC(C)(C)OC(=O)CCCCCNC(=O)CCCCCNC(=O)CCC(CN(CC(=O)OCc1ccccc1)CC(=O)OCc1ccccc1)N(CC(=O)OCc1ccccc1)CC(=O)OCc1ccccc1 (stereo not given) | inactive: > 100 µM |
| S=C1c2ccc(Cl)cc2-n2cnnc2C2CSCN12 (stereo not given) | inactive: > 100 µM |
| CC(C)NC(C)Cc1ccccc1 (stereo not given) | inactive: > 100 µM |
| CC1=C(C(=O)OCCO[N+](=O)[O-])C(c2ccccc2[N+](=O)[O-])C(C(=O)OC(C)C)=C(C)N1 (stereo not given) | inactive: 21 µM |
| C[C@@H]1[C@@H](c2ccccc2)O[B-](c2ccccc2)(c2ccccc2)[N+]1(C)C | inactive: > 100 µM |
| CCC(=O)c1ccc2[nH]c3c(C)c4c(O)cc(C)nc4c(C)c3c2c1 | inactive: > 100 µM |
| Oc1ccccc1C1C=C(c2ccccc2)NC(N2CCCCC2)=C1c1nc2ccccc2[nH]1 (stereo not given) | inactive: 17.4 µM |
| COc1cc2c(cc1O)Cc1c-2[n+](C)cc2cc(OC)c(OC)cc12 | inactive: > 100 µM |
| O[C@@H]1CCC[C@@H]2NC[C@@H](c3ccc4c(c3)OCO4)[C@H]12 | inactive: > 100 µM |
| O=C(c1cc(=O)c2ccc(O)cc2o1)c1ccc(Cl)cc1Cl | inactive: 14.8 µM |
| Cc1c2cnccc2c(C)c2c1c1ccccc1n2CCCCCCCl | inactive: > 50 µM |
| O=[N+]([O-])c1cc(/C=N/NS(=O)(=O)c2ccc(F)cc2)c(O)c([N+](=O)[O-])c1 | inactive: 61.5 µM |
| Cc1nc(-c2nc(C)c(C(=O)NN(C)C)s2)sc1C(=O)NN(C)C | inactive: > 100 µM |

| Structure (SMILES) | GI50 |
| --- | --- |
| Cc1c(Cl)c(=O)oc2cc(OCC(=O)c3ccccc3)ccc12 | inactive: > 100 µM |
| Cc1ccccc1C1SCc2nc3ccccc3n21 (stereo not given) | inactive: > 100 µM |
| CCCCCC(/C=C/C1CCC(=O)C1CC#C[Si](C)(C)C)OCc1ccccc1 (stereo not given) | inactive: 28.8 µM |
| Cc1c(S(=O)(=O)N/C(N)=N/c2ccc(Cl)cc2)sc2ccc(Cl)cc12 | inactive: 18 µM |
| COc1cc(-c2cc(=O)c3cc4c(=O)cc(-c5cc(OC)c(OC)c(OC)c5)oc4cc3o2)cc(OC)c1OC | inactive: 75.7 µM |
| COc1ccc(-c2c3c(nc4nc(SC)nc(SC)c24)CCCC3)cc1OC | inactive: > 100 µM |
| Cc1nc2sccn2c1C(=O)NNC(N)=S | inactive: > 100 µM |
| c1ccc(C2C3=C(CCCC3)Nc3nnnn32)cc1 (stereo not given) | inactive: > 100 µM |
| CCCN(CCC)C(=S)N/N=C/c1ccccn1 | active: < 0.01 µM |
| CCN(CC)CCNc1ccc2nnn3c4ccc(OC)cc4c(=O)c1c23 | inactive: 6.47 µM |
| CCOC(=O)[C@@]1(C(C)=O)CC(C)=C(C)C[S@@+]1[O-] | inactive: > 100 µM |
| N=C(N)c1ccc(/N=N\c2c(O)ccc3c2[nH]c2ccccc23)cc1 | inactive: 11.7 µM |
| CCC12CCCN(Cc3ccccc3)C1c1c(n(C)c3ccccc13)[C@H](C(=O)OC)C2 (stereo not given in full) | inactive: 92.5 µM |
| CC1=C(c2cc(C(=O)Nc3ccc(Cl)c(Cl)c3)nc(N)n2)Sc2ccccc2N1 | inactive: > 100 µM |
| CC(C)(C)C1CCC2(CC1)CCN(CCCN1CCOCC1)CC2 | inactive: > 54 µM |
| CC(C)(C)/N=C1\C(=O)C2(C)CCC1C2(C)C (stereo not given) | inactive: > 100 µM |
| COc1ccc(NC(C)=O)c(C(O)CCNC(C)=O)c1 (stereo not given) | inactive: > 100 µM |
| NCCCNCCSSCCCCS(=O)O | inactive: 96.6 µM |
| COc1ccc(-c2c(C#N)c(N)nc3c2CCS(=O)(=O)c2ccccc2-3)cc1 | inactive: > 100 µM |
| O=C1C(Cl)N(c2ccccc2)C1c1c[nH]c2ccccc12 (stereo not given) | inactive: > 100 µM |
| COC(=O)/C=C(\C(=O)OC)C1C(=O)Oc2c(C)c(=O)c3ccccc3n21 (stereo not given) | inactive: > 100 µM |
| C[N+](C)(Cc1ccc(NC(=O)CCCC(=O)ON2C(=O)CCC2=O)cc1)c1ccccc1 | active: < 0.01 µM |
| COc1ccc(OC)c(CSc2ccc(OC)c(OC)c2)c1 | inactive: > 100 µM |

| Structure (SMILES) | GI50 |
| --- | --- |
| CCOC(=O)c1c(-c2ccccc2)c(C(OC(c2ccccc2)c2c(-c3ccccc3)c(C(=O)OCC)n3ccccc23)c2ccccc2)c2ccccn12 (stereo not given) | inactive: > 100 µM |
| COC(=O)N/N=C(\c1nc2ccc(Cl)cc2nc1O)C(O)c1ccc([N+](=O)[O-])cc1 (stereo not given) | inactive: > 100 µM |
| COc1cc(S(=O)(=O)Nc2nc(-c3ccc(N4C(=O)C(CC(=O)O)SC4c4ccccc4O)cc3)cs2)ccc1Cl (stereo not given) | inactive: 69.8 µM |
| OCCOc1ccccc2cccc1-2 | inactive: > 100 µM |
| CC(C)=CCC/C(=C\CC/C(=C\CCc1ccoc1)C(=O)O)C(=O)O | inactive: > 100 µM |
| CNC(C)C(O)c1ccc2oc3cc(=O)c4ccccc4c-3nc2c1 (stereo not given) | inactive: 13.8 µM |
| CCc1nc2cc3cccnc3c(Cl)c2[nH]c1=O | inactive: > 100 µM |
| NCCCCN(CCCN)/[N+]([O-])=N\O | inactive: > 100 µM |
| CC1=C(C(=O)OC23CC4CC(CC(C4)C2)C3)C(c2ccccc2OC(F)F)C(C(=O)OC23CC4CC(CC(C4)C2)C3)=C(C)N1 (stereo not given) | inactive: > 100 µM |
| CC(C)c1ccccc1SCc1cc(=O)cc(CSc2ccccc2C(C)C)o1 | inactive: 19.5 µM |
| COc1ccc2nc(-c3ccc(O)cc3)cn2c1 | inactive: 92.5 µM |
| CCOC(=O)C1CC(=O)C=C2CCCCC21 (stereo not given) | inactive: > 100 µM |
| COc1ccc2oc(=O)c(-c3cc4c(c(C)n3)c(=O)oc3ccc(OC)cc34)cc2c1 | inactive: > 100 µM |
| O=C1CSC(c2ccc(Cl)cc2Cl)N1c1ccc(Oc2ccc(Cl)cc2)c(Cl)c1 (stereo not given) | inactive: 25.1 µM |
| C[C@]1(O)O[C@@H]2OCC[C@@H]2C2=C1C(=O)c1ccccc1C2=O | inactive: 17.9 µM |
| O=C(NC(Cc1ccccc1)(Cc1ccc(O)cn1)C(=O)O)c1ccccc1 (stereo not given) | inactive: > 100 µM |
| CSC1=C(C(=O)N(COCC[Si](C)(C)C)c2ccccc2Br)CCC(C(C)(C)C)C1 (stereo not given) | inactive: 22.5 µM |
| CN(C)c1ccc(/C=C2\N=C(N/N=C/c3ccccc3O)NC2=O)cc1 | inactive: 34.9 µM |
| C[C@@H]1S[C@H](c2c(Cl)cccc2Cl)N2Cc3ccccc3N=C12 | inactive: > 100 µM |
| COC(=O)[C@@]1(C)CCC[C@]2(C(=O)O)C3Cc4occc4[C@H](C)[C@@H]3CCC21 (stereo not given in full) | inactive: 68.9 µM |
| O=C1C(=Cc2ccc([N+](=O)[O-])o2)C(=O)N(CCc2ccccc2)S(=O)(=O)N1CCc1ccccc1 | inactive: > 100 µM |

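Each compound was tested at five concentrations against cells in 96-well plates for 48 hours. GI50 = concentration required for 50% inhibition of growth.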 Calls of active or inactive are those of the source. Cut-off read from the data, not from the text of the source: active = GI50 up to about 1.1 µM and inactive = higher.
